PubChem BioAssay AID1240 (Sanford-Burnham Center for Chemical Genomics, 2008)
In all, about 50,000 compounds went through this assay and about 800 (1.6%) showed an effect of 50% or more. This is one part of the list.

molecular target: Bcl-2-like protein 10 (Homo sapiens) (UniProt Q9HD36); assay: TR3 peptide-Bcl-B binding displacers, biochemical primary FP assay, phenotype converters (AID 1240); conditions: GST-Bcl-B / FITC-TR3 peptide fluorescence polarization; stronger effect = higher value; compound at 3.75 mg/L;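 also: 0% = Bcl-B with tracer peptide and DMSO and 100% = tracer peptide lacking Bcl-B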
Chain of UniProt Q9HD36 (Q9HD36 whole entry, looked up): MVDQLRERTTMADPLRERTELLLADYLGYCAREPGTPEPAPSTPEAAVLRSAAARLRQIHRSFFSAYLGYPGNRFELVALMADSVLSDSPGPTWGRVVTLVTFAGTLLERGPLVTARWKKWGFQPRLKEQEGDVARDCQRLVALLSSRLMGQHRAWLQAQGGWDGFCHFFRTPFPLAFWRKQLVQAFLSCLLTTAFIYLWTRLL

SMILES | displacement
CS/C(=N\S(=O)(=O)c1ccc(Cl)cc1)c1ccccc1 | 7.3%
O=C(Nc1ncc(Cc2ccc(F)cc2)s1)C1CCCO1 (configuration not stated) | 15.4%
COc1ccccc1NC(=O)C1=C(C)NC(=S)NC1c1ccc(Cl)cc1 (configuration not stated) | -20.6%
O=C1C=CC(=O)N1Nc1c(Cl)cc(Cl)cc1Cl | 2.6%
COC(=O)N1CCN(c2ccc([N+](=O)[O-])cc2)CC1 | -2.3%
Cc1ccccc1C1=N/C(=C\c2ccc(Br)o2)C(=O)O1 | 13.5%
COC(=O)C1=C(C)N(C)C(=O)/C1=C\c1ccc(C(=O)OC)cc1 | 16.4%
CC1=[N+]([O-])C(C)(C)C(c2cccs2)=[N+]1[O-] | 13.4%
Cc1ccc(N2CC(C(=O)Nc3cc(C)ccc3C)CC2=O)cc1 (configuration not stated) | 11.9%
Cc1ccc(C(=O)CCNc2ccc3ccccc3c2)o1 | 23.6%
COc1ccc2nnc(-c3ccccc3)n2n1 | 0.8%
O=C(NCc1ccco1)c1cc2c(ccc3ccccc32)oc1=O | 8.9%
CCc1ccc(CN2CCN(C(=O)c3cc(OC)cc(OC)c3)CC2)cc1 | -8.9%
O=C(c1nn2c(c1Cl)NC(c1ccco1)CC2C(F)(F)F)N1CCN(Cc2ccccc2)CC1 (configuration not stated) | -0.5%
OC(c1ccccc1)c1ccc2c(c1)OCCCO2 (configuration not stated) | 6.7%
Cc1cc(F)ccc1NCc1ccccn1 | 6%
O=C(O)c1ccc(NC2=C(Cl)C(=O)N(c3cccc(Cl)c3)C2=O)cc1 | 13.2%
COc1ccc(N(CC(=O)Nc2cccc(OC)c2)S(=O)(=O)c2ccc(C)cc2)cc1 | 5.1%
C=CCc1cccc2cc(C(=O)NC3CCCCC3)c(=O)oc12 | -1%
COC(=O)c1nc2nc(C)cc(C)n2n1 | -10.7%
CCOc1cccc(-c2cc(C(=O)N3CCc4ccccc43)c3ccccc3n2)c1 | 110%
COc1ccc(N2C(=O)CSC2c2ccc(C)cc2)cc1 (configuration not stated) | 2.2%
O=C(/C=C/c1c[nH]c2ccccc12)c1ccc([N+](=O)[O-])cc1 | 5.6%
CCN(CC)c1ccc(C=Nc2ccc(S(N)(=O)=O)cc2)cc1 | 6.6%

SMILES | displacement
CC(=O)OC(OC(C)=O)C12C=CC(O1)C1C(=O)N(c3cc(C(F)(F)F)ccc3Cl)C(=O)C12 (configuration not stated) | -13.6%
O=C1NC(=O)N(c2ccc(Cl)cc2)C(=O)/C1=C/c1cccc(Br)c1 | 5.6%
C=CCNC(=S)NNC(=O)COc1cccc(C)c1 | -15.4%
COc1ccccc1/C=C1\SC(=O)N(c2ccc(Cl)cc2)C1=O | -2.6%
CN(C)/C=C1\C(=O)N/C(=C/c2ccc(Br)cc2)C1=O | 7.9%
COCCCNC(=O)COc1ccc(C)cc1Br | -11.2%
CN1CCN(C(=O)c2ccccc2NC(=O)c2ccccc2)CC1 | 3.4%
Cc1ccc(O)c(C(=O)CC(=O)c2ccc(Br)cc2)c1 | -26.7%
COc1cccc(NC(=S)NC(NC(=O)c2ccc(Br)cc2)C(Cl)(Cl)Cl)c1 (configuration not stated) | 1.1%
CCCC1(O)CC(c2ccccc2)NC(c2ccccc2)C1C (configuration not stated) | 4.2%
O=C(CN1C(=O)c2ccccc2C1=O)N1CCN(C(=O)c2ccccc2)CC1 | 11%
OCCNc1nc(-c2ccccc2Cl)nc2ccccc12 | 7.5%
CCCC(=O)NC(c1ccco1)c1c(O)ccc2ccccc12 (configuration not stated) | 6.6%
CCOC(=O)C1=NN(C(=O)COc2ccccc2)C(O)(c2ccc(Cl)cc2)C1 (configuration not stated) | -16.6%
CC(=O)N1CCN(c2ccc(NC(=O)c3ccccc3)cc2)CC1 | 16.9%
CCC(C(=O)NCc1ccc(OC)cc1)c1ccccc1 (configuration not stated) | -1.6%
COc1ccc(OC)c(NS(=O)(=O)c2cccc([N+](=O)[O-])c2)c1 | 2.1%
COc1cc(C)c(CNCc2ccc(OC)c(OC)c2)cc1C | 10.8%
CCc1ccc(C(=O)CC(c2ccccc2)C2CCCCC2=O)cc1 (configuration not stated) | -0.9%
COc1ccc(CCNC(=O)c2cccc(Cl)c2)cc1 | -7.3%
O=[N+]([O-])c1ccc(N2CCCC2)c(C(F)(F)F)c1 | 13%
Cc1ccc(NS(=O)(=O)c2cccc([N+](=O)[O-])c2)cc1Cl | -0.2%
Cc1onc(-c2ccccc2Cl)c1C(=O)N1CCN(c2ccc(Cl)cc2[N+](=O)[O-])CC1 | -0.6%
CC(=O)CCc1c(C)c2cccc(C)c2[nH]c1=S | 0.7%

SMILES | displacement
Cc1nc2nc(-c3ccccc3)[nH]c2cc1Br | 2.6%
OCCCc1nc2ccccc2n1Cc1ccc2ccccc2c1 | 8.4%
CC1=[N+]([O-])C(C)(C)C(c2ccc(C)cc2)=[N+]1[O-] | 12.9%
CC1=C(C(=O)OC2CCCCC2)C(c2ccncc2)C2=C(CCCC2=O)N1 (configuration not stated) | -4.5%
O=C(Nc1ccc(-c2nc3ccccc3s2)c(O)c1)c1ccc(Cl)cc1Cl | -0.6%
c1ccc2oc(N3CCOCC3)nc2c1 | -3.8%
COc1ccc(C(=O)Nc2sc3c(c2C#N)CC(C)(C)SC3)cc1[N+](=O)[O-] | -6.1%
O=C(NCc1ccc2c(c1)OCO2)c1cccc(I)c1 | 6.6%
O=C1NN(c2ccc(F)cc2)C(=O)/C1=C\c1ccc(F)cc1 | -11.6%
Cc1ccccc1OCCSc1nc2ccccc2n1CCO | 3%
CCOc1ccccc1NC(=O)COc1ccc(Br)cc1 | -5.2%
COC(=O)c1cc(NC(=O)/C=C/c2cccc([N+](=O)[O-])c2)cc(C(=O)OC)c1 | 10.4%
CCOC(=O)c1c(NC(=O)c2ccccc2)sc2c1CCC/C2=N/O | -0.2%
CCC(=O)N1CCN(c2cc(C)c([N+](=O)[O-])cc2F)CC1 | -11%
COc1ccc(CCNc2cc(N3CCN(C)CC3)ccc2[N+](=O)[O-])cc1OC | 6.6%
COc1ccc(C2CC(=O)C3=C(C2)Nc2ccccc2NC3c2cc(OC)ccc2OC)cc1 (configuration not stated) | -6.1%
Cc1nn(C(=O)c2ccncc2)c(C)c1Sc1ccc(Br)cc1 | -4.5%
CCOC(=O)C1=C(C)NC(=O)NC1c1ccc(N2CCOCC2)cc1 (configuration not stated) | -7.7%
COc1ccc2c(c1)N(S(=O)(=O)c1ccc(NC(C)=O)cc1)C(C)(C)C=C2C | 3.8%
O=C(NCCCN1CCOCC1)c1cc(-c2ccccc2)nc2ccccc12 | -8.6%
O=C1NC(=S)N/C1=C\c1ccc(-c2cc([N+](=O)[O-])ccc2Br)o1 | 1.6%
Cc1cc(C(=O)N/N=C/c2ccccc2OCC(=O)O)n[nH]1 | -16%
CC(=O)OCCNC(=O)/C(=C\c1ccc2c(c1)OCO2)NC(=O)c1ccco1 | -15.6%
O=C(c1cccnc1)N1CCN(c2ccc(F)cc2)CC1 | -9%
